Target: S-RBD/ACE2 association at the HEK293T-ACE2 cells surface (Severe acute respiratory syndrome coronavirus 2, UniProt P0DTC2)
Assay: Cellular S-RBD/ACE2 interaction model, flow cytometry on HEK293T-ACE2 cells

## C(=C\c1nc2ccccc2s1)/c1cccc(N(c2cccc(/C=C/c3nc4ccccc4s3)c2)c2cccc(/C=C/c3nc4ccccc4s3)c2)c1 [TP m 3BTZ compound, Tris {3-(2-(benzothiazole-2-yl)vinylphenyl}amine)]
  S-RBD/ACE2 association at the surface of the cell: decreased the efficiency of S-RBD/ACE2 association
